Experimental data taken from the supplement of paper PMC3334620.
Over roughly 33,000 sequences, “E-score (-0.5 to 0.5)” has its median near -0.012; the highest 2% begin near 0.27. This is one part of the list.

Target: T1, Vhr1 (UniProt P40522)
T1 sequence: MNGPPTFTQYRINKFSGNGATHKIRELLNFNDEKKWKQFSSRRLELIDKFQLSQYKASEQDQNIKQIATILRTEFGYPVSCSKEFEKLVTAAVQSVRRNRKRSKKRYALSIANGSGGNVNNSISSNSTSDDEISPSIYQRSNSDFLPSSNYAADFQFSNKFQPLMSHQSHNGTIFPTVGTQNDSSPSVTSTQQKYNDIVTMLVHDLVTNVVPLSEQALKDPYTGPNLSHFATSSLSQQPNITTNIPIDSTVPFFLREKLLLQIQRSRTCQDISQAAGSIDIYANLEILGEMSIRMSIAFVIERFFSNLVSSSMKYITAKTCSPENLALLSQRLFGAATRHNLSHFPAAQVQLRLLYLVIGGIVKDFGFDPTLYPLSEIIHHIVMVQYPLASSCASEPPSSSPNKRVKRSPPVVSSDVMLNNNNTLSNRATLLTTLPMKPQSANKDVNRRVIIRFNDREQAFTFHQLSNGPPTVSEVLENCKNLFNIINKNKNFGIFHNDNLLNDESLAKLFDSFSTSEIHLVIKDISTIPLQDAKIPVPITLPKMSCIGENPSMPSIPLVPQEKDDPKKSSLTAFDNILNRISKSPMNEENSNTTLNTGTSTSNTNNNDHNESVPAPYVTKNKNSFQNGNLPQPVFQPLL
Experiment: PBM E-score (8-mer binding enrichment) (E-score (-0.5 to 0.5)); higher = stronger / more preferred TF binding; most listed sequences are background and not binding sites
Conditions: protein concentration: 200 nM; construct: GST-full length
Method in brief: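 For each ungapped eight-base word taken together with its reverse complement, the Universal PBM Analysis Suite assigned an E-score. Binding data came from GST-tagged yeast transcription factors, applied at about 100-200 nM, on universal all-10-mer Agilent arrays made double-stranded by primer extension. Fluorescent anti-GST marked bound protein, and scans were normalised with masliner.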

Row | Sequence | PBM E-score
1 | CAGATGTC | 0.105
2 | CACACGTC | -0.0418
3 | AAGTCACT | 0.209
4 | CGCGCACA | 0.102
5 | AAAATGTC | -0.229
6 | AGCTCTGG | -0.219
7 | AAAATTGC | -0.133
8 | CATCGAGA | -0.00344
9 | CAATGGTG | -0.0981
10 | ATGGTTCC | 0.318
11 | GTGGGAGA | 0.0114
12 | CGACCGAG | -0.0809
13 | CAACTTGC | -0.129
14 | CCACCTAA | 0.0225
15 | AGACCGCT | -0.159
16 | CTCAGAAG | -0.0987
17 | ACGGGTGG | 0.23
18 | CATAACAA | 0.142
19 | ATGCTAAC | -0.153
20 | ACTCCGAC | 0.332
21 | AACCGCCA | 0.142
22 | CCAGTCAC | 0.296
23 | CTGCGGCA | -0.249
24 | CGTTACCC | 0.0276
25 | CAACCCGG | -0.116

Row | Sequence | PBM E-score
26 | TGATCAAA | -0.0544
27 | ATAGTAAA | 0.228
28 | GAAATAGC | -0.197
29 | CCGTCGGC | -0.143
30 | GACGTACA | -0.0564
31 | GTTTCAGA | -0.0471
32 | ACCCAAGA | 0.0309
33 | AGCGAGCC | 0.0642
34 | AGAGAGTC | 0.215
35 | GACGCATA | 0.0856
36 | ACTGACGG | -0.148
37 | ACTCCCTC | 0.0377
38 | ACCATTGG | 0.0996
39 | ATCACACA | 0.282
40 | CATCGACA | 0.0338
41 | AAGTGTGG | -0.0606
42 | AGTCCTCG | 0.0538
43 | AGGCCTGC | -0.266
44 | GGAGCGGA | 0.0344
45 | CGGGAACG | -0.106
46 | ACCCCGAG | -0.0233
47 | AACGCCTA | -0.16
48 | ACACACTC | 0.293
49 | CATGAATA | 0.0636
50 | CAGGCAAA | -0.071

Row | Sequence | PBM E-score
51 | GCGCTAAC | -0.0165
52 | CCTGGACC | -0.0193
53 | ACCCCACG | -0.0797
54 | ATCGGAAC | 0.144
55 | GTGGGCAA | -0.157
56 | AAGTCGCC | -0.0133
57 | CTAACTAA | -0.0113
58 | AGCCTGAA | 0.0329
59 | ATGCTCGC | 0.0137
60 | AACTTGGC | -0.119
61 | ACGTCTAC | -0.0294
62 | CCAGAGCG | -0.145
63 | AAATCCCC | -0.163
64 | CATCTTTC | -0.226
65 | ACACCCAT | 0.191
66 | GCTAACGA | -0.0417
67 | AACTTACA | -0.034
68 | CATAAATG | 0.022
69 | ACTCATCG | 0.304
70 | GACAGGAC | 0.063
71 | CGTGTCCC | 0.134
72 | GGCCAGGA | -0.105
73 | AAGTAAGA | -0.146
74 | AAGGCACG | -0.237
75 | AAATGTCC | -0.349

Row | Sequence | PBM E-score
76 | AATGGCGT | 0.00414
77 | AAATTCCC | -0.154
78 | GCGCTACA | -0.167
79 | GGGGGATA | -0.109
80 | GTGAAACA | 0.0937
81 | CCCCCAGG | -0.0911
82 | ATGATTTC | 0.249
83 | ATCCTGGA | 0.0612
84 | GGTCCATA | 0.0267
85 | AGCCAGAC | 0.0846
86 | GGCCTAGA | -0.0432
87 | AGGTAGTC | 0.225
88 | ACTCTGAC | 0.204
89 | CGTAAAAC | -0.264
90 | CGACATTA | -0.0133
91 | GTAGCCTA | -0.168
92 | GTAGCGAC | -0.0738
93 | GCATTGAA | -0.0212
94 | CAGTTGCA | -0.035
95 | CATGTTAC | 0.231
96 | GTAGCAAA | -0.0523
97 | ATAGCTGA | -0.0235
98 | GATTTCCA | 0.0482
99 | AAACCAGG | 0.0647
100 | ACCCTCAC | -0.0857

Row | Sequence | PBM E-score
101 | GGAAGATA | 0.0181
102 | CGCACCTC | 0.0244
103 | AAGCTAGA | -0.096
104 | GTTAATGA | 0.0145
105 | CGACAGCC | 0.00503
106 | AAGACATC | -0.0967
107 | CACGCAGG | -0.0242
108 | TAGCGTCA | -0.148
109 | CCATAGCC | -0.108
110 | CAGCCCCG | -0.0611
111 | CCGGCCGA | 0.031
112 | CACTCTTC | -0.0913
113 | ATCGGCAT | 0.0266
114 | GTCGTGTA | 0.174
115 | AACCCACG | 0.0933
116 | ATATAGAT | 0.12
117 | AAAATGTG | 0.027
118 | CCGTGATA | -0.164
119 | GAGTGGAC | -0.0407
120 | GCGATGAC | 0.233
121 | AATCCACA | 0.0279
122 | CCGTCAAC | -0.188
123 | AGGTTGGG | 0.0359
124 | CACCCCAG | -0.0397
125 | TCACCCCA | 0.305

Row | Sequence | PBM E-score
126 | AATATCCA | 0.0202
127 | AGTATGAC | 0.311
128 | AAGCTCGG | 0.0437
129 | ATTGTTCC | 0.127
130 | AGGCGGAG | 0.206
131 | AGTCGGCA | 0.282
132 | GCGCAGCC | -0.143
133 | AGAGATTG | -0.0283
134 | AGAGCTGA | 0.0627
135 | GCGGCAAA | -0.152
136 | AATCCCCC | -0.185
137 | ATGTAATC | 0.177
138 | AATCGCTG | -0.123
139 | CGAATGTA | -0.0178
140 | CAGCAAGA | -0.0328
141 | CGCCATTA | 0.0871
142 | CTGCAAAC | -0.136
143 | AATGAAGC | -0.155
144 | CCCTGTCC | -0.16
145 | GACTTGAC | -0.116
146 | CCGTCTTA | -0.205
147 | ACCGCTTA | -0.0904
148 | CTCCTAAA | -0.232
149 | CAATATTA | 0.0205
150 | TAGGAAAA | -0.22

Row | Sequence | PBM E-score
151 | CGAGCCGC | 0.139
152 | ATCCTAAC | 0.0501
153 | AGGTAAGG | -0.0705
154 | AGACTACT | 0.216
155 | ACAAATGA | -0.171
156 | GGACGCCA | -0.097
157 | GCCGACCA | -0.115
158 | CATAGGGG | -0.0569
159 | CGCGTGAA | 0.0136
160 | ATGGTCAG | 0.102
161 | GAACTGGA | 0.00065
162 | TATGAAAA | -0.123
163 | AGGATTAA | 0.0103
164 | GATAGGCA | -0.194
165 | CAAACTCC | 0.0591
166 | TGAGCTAA | -0.158
167 | AGAGACAA | -0.253
168 | AACATGGT | -0.0365
169 | GGAGCTAA | -0.183
170 | ATGCTTAG | 0.0684
171 | AAGAAGCT | -0.191
172 | TACCGAAA | -0.168
